The results in this text go back to patent publication US11254690B2, “PTEFb inhibiting macrocyclic compounds” (BAYER AKTIENGESELLSCHAFT, priority 2017, dated 2022).

For part of its entries the source gives two or more results. Only these are listed. The source may hold further records. Results that share an entry appear to be repeats (runs, samples, wells or individuals); a mean can stand among them.

For the assay, the target named is T1, human PTEFb (CDK9/Cyclin T1) (Homo sapiens, UniProt P50750).
T1 construct: purchased ProQinase, Freiburg, Germany
T1 sequence (P50750 whole entry): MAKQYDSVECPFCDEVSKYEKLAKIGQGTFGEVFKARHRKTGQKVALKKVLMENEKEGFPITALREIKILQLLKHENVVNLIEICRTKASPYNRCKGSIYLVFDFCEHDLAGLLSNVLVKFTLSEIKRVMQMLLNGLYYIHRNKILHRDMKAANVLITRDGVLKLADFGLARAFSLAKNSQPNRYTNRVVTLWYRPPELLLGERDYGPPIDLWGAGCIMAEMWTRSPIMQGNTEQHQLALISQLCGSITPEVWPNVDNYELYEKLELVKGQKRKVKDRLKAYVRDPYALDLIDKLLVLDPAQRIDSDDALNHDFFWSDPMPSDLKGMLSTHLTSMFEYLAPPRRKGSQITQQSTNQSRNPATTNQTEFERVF
T1 sequence (O60563 whole entry partner): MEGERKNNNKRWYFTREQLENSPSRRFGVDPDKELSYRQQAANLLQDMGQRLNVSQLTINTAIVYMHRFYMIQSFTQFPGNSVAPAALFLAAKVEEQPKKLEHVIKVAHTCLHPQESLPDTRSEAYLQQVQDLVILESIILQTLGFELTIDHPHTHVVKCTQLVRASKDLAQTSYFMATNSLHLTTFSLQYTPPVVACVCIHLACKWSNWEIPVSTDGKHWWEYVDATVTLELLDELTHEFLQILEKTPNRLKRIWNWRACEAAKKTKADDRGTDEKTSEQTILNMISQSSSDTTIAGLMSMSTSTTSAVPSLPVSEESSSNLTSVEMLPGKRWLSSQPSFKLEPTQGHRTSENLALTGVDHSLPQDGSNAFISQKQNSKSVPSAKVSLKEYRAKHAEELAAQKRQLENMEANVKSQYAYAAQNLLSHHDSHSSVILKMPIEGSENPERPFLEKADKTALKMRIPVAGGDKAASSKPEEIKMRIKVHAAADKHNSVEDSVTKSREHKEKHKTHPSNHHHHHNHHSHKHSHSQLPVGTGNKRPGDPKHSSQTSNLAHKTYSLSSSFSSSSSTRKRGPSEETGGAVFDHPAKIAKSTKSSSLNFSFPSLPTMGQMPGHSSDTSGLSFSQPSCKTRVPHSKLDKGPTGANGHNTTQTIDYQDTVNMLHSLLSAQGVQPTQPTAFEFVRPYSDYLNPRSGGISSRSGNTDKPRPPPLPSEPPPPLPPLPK
Description: Surface Plasmon Resonance PTEFb. Type of assay: binding. The following applies: SPR, 37° C.; * = arithmetic means of more than one value; read-out: Equilibrium dissociation constant KD. From the text:
8. Surface Plasmon Resonance PTEFb
The term “surface plasmon resonance”, as used herein, refers to an optical phenomenon that allows for the analysis of the reversible associations of biological molecules in real time within a biosensor matrix, for example using the Biacore® system (GE Healthcare Biosciences, Uppsala, Sweden). Biacore® uses the optical properties of surface plasmon resonance (SPR) to detect alterations in the refractive index of a buffer, which changes as molecules in solution interact with the target immobilized on the surface. In brief, proteins are covalently bound to the dextran matrix at a known concentration and a ligand for the protein is injected through the dextran matrix. […] This angle shift can be measured. […]
The ability of the compounds according to the invention to bind human PTEFb may be determined using surface plasmon resonance (SPR). KD values and koff values may be measured using a Biacore® T200 instrument (GE Healthcare, Uppsala, Sweden).
For SPR measurements, recombinant human PTEFb (CDK9/Cyclin T1 recombinant human active protein kinase purchased from ProQinase, Freiburg, Germany) is immobilized using standard amine coupling (Johnsson B et al, Anal Biochem. 1991 Nov. 1; 198(2):268-77). […] Binding kinetics is measured at 37° C. with a flow rate of 100 μl/min in running buffer. […]

One may read the Kd as a measure of binding affinity in units of concentration. Regarding `CC1CCCOc2cc(ccc2F)-c2cc(ncc2F)Nc2cc(CS(C)(=N)=O)cc(n2)O1` (single isomer, unassigned) [Example 16, 3,20-difluoro-14-methyl-10-[(S-methylsulfonimidoyl)methyl]-13,18-dioxa-5,7,24-triazatetracyclo[17.3.1.1^2,6.1^8,12]pentacosa-1(23),2(25),3,5,8(24),9,11,19,21-nonaene], the Kd is 0.28, 0.066, 0.024, 0.029 nM [one cell].
